# Measurements from PubChem BioAssay AID504706 (National Center for Advancing Translational Sciences (NCATS), 2011).
# The whole screen tested about 320,000 compounds, of which about 200 (0.062%) were called active. The shares of active, inactive and inconclusive entries below differ from those in the screen. The call rests on the fitted dose curve; in most records, active means well fitted activation curve with a large enough effect; inconclusive means small, poorly fitted or top-dose-only effect; inactive means no such curve, though single readings can be large or run the other way. Potencies of inconclusive entries are left out as doubtful fits.
# Experiment: qHTS assay for re-activators of p53 using a Luc reporter; further: nearly all actives have a fitted effect of over 45% in size
# Details: H1299 p53-A138V BP100-luciferase reporter, luminescence, 24 h; series mostly up to 92.2 µM
# Outline: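 p53-null H1299 cells stably carrying temperature-sensitive p53-A138V and a BP100-luciferase reporter were pinned with compounds (4-point, 1:5 series) and held 24 hrs at 37 deg C. Luminescence was read 10 min after detection reagent.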
# Potency means the concentration at half of the fitted maximal effect; tags describe the fitted curve by direction and shape.
row,SMILES,Potency
1,CC(C)C(=O)Nc1cccc(NC(=S)NC(=O)c2ccc(Cl)cc2)c1,inactive
2,Clc1ccc(-n2ncc3c(NCC4CCCO4)ncnc32)cc1 (stereo not given),"inconclusive [activator, full curve, poor fit]"
3,Cc1cccc(N2CCN(C(=O)CN3C(=O)C4CC=CCC4C3=O)CC2)c1C (stereo not given),inactive
4,Cc1ccc(OCC(=O)N/N=C\c2cn(C)c3ccccc23)c([N+](=O)[O-])c1,"inconclusive [activator, single point]"
5,CC1CCN(C(=O)CSc2nnc3c(n2)[nH]c2ccc(F)cc23)CC1,inactive
6,O=C(OCC(=O)c1c[nH]c2ccccc12)c1cccc([N+](=O)[O-])c1,"inconclusive [activator, partial curve, poor fit]"
7,Nc1ccccc1C(=O)NNC1=C(C(=O)C(F)(F)F)CCC1,"inconclusive [activator, partial curve, poor fit]"
8,CCOC(=O)c1cc2cc(F)ccc2nc1C,"inconclusive [activator, partial curve, poor fit]"
9,Nc1c(C(=O)CSc2nc3ccccc3o2)c(=O)[nH]c(=O)n1C1CC1,"inconclusive [activator, partial curve, poor fit]"
10,Cn1c(SCC(=O)c2ccccc2F)nnc1C1CC1,"inconclusive [activator, partial curve, poor fit]"
11,COc1cc(Cl)c(S(=O)(=O)NCc2cccnc2)cc1Cl,inactive
12,COc1ccc(/C=N/NC(N)=S)cc1,inactive
13,Cn1nccc1C(=O)NC(=S)Nc1sc2c(c1C#N)CCCCC2,"inconclusive [activator, partial curve, poor fit]"
14,CC(C)(C)NS(=O)(=O)c1cc2c3c(c1)CCN3C(=O)CC2,"inconclusive [activator, single point]"
15,CC(O)/C=C/c1ccc2ccccc2n1 (stereo not given),"inconclusive [activator, single point]"
16,O=C(OCc1ccccc1)c1ccc2c(c1)-c1ccccc1C2=O,"inconclusive [activator, full curve, poor fit]"
17,COc1ccc(C2=NC(c3ccccc3)CO2)cc1 (stereo not given),"inconclusive [activator, partial curve, poor fit]"
18,c1ccc(-c2noc(C34CC5CC(CC(C5)C3)C4)n2)nc1,"inconclusive [activator, full curve, poor fit]"
19,O=[N+]([O-])c1cccc(NC(=S)N2CCCC2)c1,"inconclusive [activator, partial curve, poor fit]"
20,O=C(Nc1nc2c(ccc3ccccc32)s1)c1ccco1,inactive
21,Clc1ccc(-c2nnc(Sc3nc4ccccc4o3)c3ccccc23)cc1,inactive
22,CCCOc1ccc(/C(O)=C2/C(=O)C(=O)N(CCN(C)C)C2c2ccco2)cc1 (stereo not given),"inconclusive [activator, full curve, poor fit]"
23,O=C1CC(c2cccc(Cl)c2)Cc2nc(N3CCN(c4ccccc4)CC3)ncc21 (stereo not given),inactive
24,Cc1ccn2cc(-c3ccc(O)c(O)c3)nc2c1,"inconclusive [activator, partial curve, poor fit]"

row,SMILES,Potency
1,Cc1ccc(N2C(=O)C3C(C2=O)C(C(=O)c2ccc(Cl)cc2)N2CCCC32)cc1 (stereo not given),"inconclusive [activator, single point]"
2,CC1(C)Cc2ccccc2-c2nnc(-c3ccccc3)n21,inactive
3,CCN1CCC(=NNC(=O)c2ccco2)CC1,"inconclusive [activator, full curve, poor fit]"
4,CCOC(=O)c1cn(-c2c(Cl)cccc2Cl)c2cc(Cl)c([N+](=O)[O-])cc2c1=O,inactive
5,COCCOc1ccc(C(F)(F)F)cc1Nc1nc2ccccc2o1,"inconclusive [activator, partial curve, poor fit]"
6,CCCCCc1ccc(S(=O)(=O)Nc2cc(C)ccn2)cc1,inactive
7,COc1ccccc1NC(=O)CCS(=O)(=O)c1ccc2c(c1)NC(=O)C(C)S2 (stereo not given),inactive
8,CCOc1ccc(CC(=O)NCCc2cnc[nH]2)cc1,"inconclusive [activator, single point]"
9,O=C(OC(c1ccccc1)c1nccc2ccccc12)c1cc([N+](=O)[O-])cc([N+](=O)[O-])c1 (stereo not given),"inconclusive [activator, single point]"
10,CCOc1ccc(NC(=S)NCCN2CCN(Cc3ccccc3)CC2)cc1,inactive
11,CC(=O)c1c(N2CCN(c3ccc(F)cc3)CC2)nc(=S)n(Cc2ccccc2)c1C,inactive
12,O/N=C/c1ccc(OCc2ccccc2)c(Br)c1,"inconclusive [activator, partial curve, poor fit]"
13,CC(C)Oc1ccc(/C(O)=C2/C(=O)C(=O)N(CCN3CCOCC3)C2c2ccccc2)cc1 (stereo not given),"inconclusive [activator, full curve, poor fit]"
14,Cc1cc2nc(SCCN3CCOCC3)[nH]c2cc1C,"inconclusive [activator, partial curve, poor fit]"
15,Cc1ccc2nc(-c3ccccc3C)oc(=O)c2c1,"inconclusive [activator, partial curve, poor fit]"
16,O=C(CCCc1ccccc1)N1CCc2ccccc21,"inconclusive [activator, full curve, poor fit]"
17,O=C(Nc1ccc(Cl)cc1F)c1ccc(-n2cncn2)cc1,"inconclusive [activator, partial curve, poor fit]"
18,CCN1/C(=C/C(=O)c2ccco2)Sc2ccccc21,"inconclusive [activator, partial curve, poor fit]"
19,O=C(NCc1ccccc1)C1CCC(=O)N(CCCN2CCCC2=O)C1 (stereo not given),inactive
20,c1ccc(-c2cc3ccccc3cn2)cc1,"inconclusive [activator, full curve]"
21,Cc1cc(C)cc(OCC(=O)NNC(=O)c2ccccn2)c1,"inconclusive [activator, full curve, poor fit]"
22,COc1cc(/C=N/NC(=O)c2ccccn2)cc2c1OCO2,"inconclusive [activator, full curve, poor fit]"
23,O=c1c2ccccc2nnn1CSc1nc2ccccc2[nH]1,"inconclusive [activator, partial curve, poor fit]"
24,C/C(=N\Nc1cccc2cccnc12)c1ccccn1,"inconclusive [activator, partial curve, poor fit]"

row,SMILES,Potency
1,O=C(N/N=C/c1ccc2c(c1)OCO2)c1cccs1,"inconclusive [activator, partial curve, poor fit]"
2,Cc1cc(C(=O)CN2C(=O)NC3(CCCCC3)C2=O)c(C)n1Cc1ccc2c(c1)OCO2,"inconclusive [activator, partial curve, poor fit]"
3,CSc1nc(NCC(C)O)c2c3c(sc2n1)CN(C)CC3 (stereo not given),inactive
4,Cc1ccc(-c2csc(NC(=O)/C=C/c3ccco3)c2C(=O)O)cc1,"inconclusive [activator, partial curve, poor fit]"
5,O=C(/C=C/c1ccc2c(c1)OCO2)Nc1nc(-c2ccc(F)cc2)cs1,inactive
6,Cc1cccc(/C=N/Nc2cc(N3CCOCC3)nc(N3CCOCC3)n2)c1,inactive
7,CCOC(=O)/C(=N/Nc1ccc(OC)cc1)N1CCCc2ccccc21,inactive
8,CCc1[nH]nc(C(=O)N2CCCC(Nc3cccc(F)c3)C2)c1C (stereo not given),"inconclusive [activator, single point]"
9,O=C(N/N=C/c1ccc(Cl)cc1)c1ccc2c(c1)OCO2,"inconclusive [activator, partial curve, poor fit]"
10,COc1cccc2c1[C@@H]1CN(CCCCn3c(=O)[nH]c4c(sc5ncc(-c6ccccc6)nc54)c3=O)C[C@@H]1CO2,"inconclusive [activator, single point]"
11,COC(=O)c1ccc(NC(=O)Nc2ccc([N+](=O)[O-])cc2)cc1,inactive
12,O=C(CNC(=O)/C(=C/c1ccccc1)NC(=O)c1ccc(Br)cc1)OCc1ccccc1,inactive
13,COc1ccc(Cn2c(N)c(C#N)c3nc4ccccc4nc32)cc1,inactive
14,Cc1ccc(C(=O)NC(=S)Nc2cccc3nsnc23)cc1,inactive
15,Cn1c(-c2cc3ccc(OC(=O)C(C)(C)C)cc3oc2=O)nc2ccccc21,"inconclusive [activator, full curve, poor fit]"
16,COc1ccc(C(=S)Nc2ccc(N(C)C)cc2)cc1,"inconclusive [activator, partial curve, poor fit]"
17,Cn1c(C=O)c(-c2ccc3c(c2)OCCO3)c2ccccc21,inactive
18,Cc1cc(C(=O)Cn2nc(C(=O)O)c3ccccc3c2=O)c(C)n1-c1ccccc1,"inconclusive [activator, partial curve, poor fit]"
19,N#Cc1ccccc1NC(=O)COC(=O)c1ccc2c(c1)OCCO2,"inconclusive [activator, full curve, poor fit]"
20,Cc1snc(SCC(=O)c2ccc([N+](=O)[O-])cc2)c1C#N,"inconclusive [activator, single point]"
21,CC(=O)Nc1ccc(C(=O)NC2CCCC2)cc1,inactive
22,O=C(N1CCOCC1)N1CCN(S(=O)(=O)c2ccc(Cl)cc2)CC1,inactive
